The target of assay [1] is T1, SPA1-HA (Arabidopsis thaliana) (UniProt Q9SYX2).
T1 sequence: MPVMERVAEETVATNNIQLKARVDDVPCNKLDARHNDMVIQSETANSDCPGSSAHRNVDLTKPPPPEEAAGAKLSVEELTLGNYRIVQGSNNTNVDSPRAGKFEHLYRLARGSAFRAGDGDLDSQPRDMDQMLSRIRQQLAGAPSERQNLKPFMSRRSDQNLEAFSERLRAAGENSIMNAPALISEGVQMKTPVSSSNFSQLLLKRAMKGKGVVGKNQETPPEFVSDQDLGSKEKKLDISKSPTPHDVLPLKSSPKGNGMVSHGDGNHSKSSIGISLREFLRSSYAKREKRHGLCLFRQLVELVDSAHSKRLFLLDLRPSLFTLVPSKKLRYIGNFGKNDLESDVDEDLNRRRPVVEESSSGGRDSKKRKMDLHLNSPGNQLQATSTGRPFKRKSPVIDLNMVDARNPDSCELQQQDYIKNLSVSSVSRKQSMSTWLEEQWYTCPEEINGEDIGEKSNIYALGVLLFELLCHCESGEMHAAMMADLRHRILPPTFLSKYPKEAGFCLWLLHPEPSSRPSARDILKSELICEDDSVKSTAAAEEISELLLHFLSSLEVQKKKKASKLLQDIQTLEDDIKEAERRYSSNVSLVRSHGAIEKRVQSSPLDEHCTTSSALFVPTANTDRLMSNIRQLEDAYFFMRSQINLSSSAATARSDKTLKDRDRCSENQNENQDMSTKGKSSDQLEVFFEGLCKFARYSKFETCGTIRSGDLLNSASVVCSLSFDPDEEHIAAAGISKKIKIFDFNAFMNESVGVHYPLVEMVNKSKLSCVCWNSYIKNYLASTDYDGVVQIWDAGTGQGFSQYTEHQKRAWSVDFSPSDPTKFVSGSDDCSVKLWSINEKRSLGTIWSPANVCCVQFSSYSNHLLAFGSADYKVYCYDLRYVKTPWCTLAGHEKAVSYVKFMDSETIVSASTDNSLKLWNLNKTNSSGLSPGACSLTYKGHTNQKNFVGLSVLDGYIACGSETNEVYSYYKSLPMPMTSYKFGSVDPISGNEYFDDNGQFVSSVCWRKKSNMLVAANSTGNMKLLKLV
The assay can be described thus: co-IP; as a1, but 4-day-old dark-grown seedlings kept in darkness (no blue light).

Sequences of proteins named here, by UniProt entry; tags and fusion partners are left off.
UniProt Q43125: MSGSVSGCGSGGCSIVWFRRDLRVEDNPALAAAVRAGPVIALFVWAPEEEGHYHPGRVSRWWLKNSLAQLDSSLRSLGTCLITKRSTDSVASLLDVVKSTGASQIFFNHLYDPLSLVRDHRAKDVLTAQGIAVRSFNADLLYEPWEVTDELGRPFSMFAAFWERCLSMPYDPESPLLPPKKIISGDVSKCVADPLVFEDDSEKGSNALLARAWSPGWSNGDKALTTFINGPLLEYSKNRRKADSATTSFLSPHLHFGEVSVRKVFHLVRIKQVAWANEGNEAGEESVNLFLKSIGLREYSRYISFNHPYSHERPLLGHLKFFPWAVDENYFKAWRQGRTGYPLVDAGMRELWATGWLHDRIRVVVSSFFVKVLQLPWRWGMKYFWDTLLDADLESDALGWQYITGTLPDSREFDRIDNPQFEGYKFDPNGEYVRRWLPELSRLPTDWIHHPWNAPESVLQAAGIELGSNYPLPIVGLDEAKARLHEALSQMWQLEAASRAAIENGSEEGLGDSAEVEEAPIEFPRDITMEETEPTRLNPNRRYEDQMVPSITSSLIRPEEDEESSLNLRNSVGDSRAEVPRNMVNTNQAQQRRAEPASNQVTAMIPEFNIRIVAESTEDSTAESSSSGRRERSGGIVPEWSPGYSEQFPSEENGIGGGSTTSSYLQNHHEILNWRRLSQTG

Assay [2] concerns the target T2, SPA2-HA (Arabidopsis thaliana) (UniProt Q9T014).
T2 sequence: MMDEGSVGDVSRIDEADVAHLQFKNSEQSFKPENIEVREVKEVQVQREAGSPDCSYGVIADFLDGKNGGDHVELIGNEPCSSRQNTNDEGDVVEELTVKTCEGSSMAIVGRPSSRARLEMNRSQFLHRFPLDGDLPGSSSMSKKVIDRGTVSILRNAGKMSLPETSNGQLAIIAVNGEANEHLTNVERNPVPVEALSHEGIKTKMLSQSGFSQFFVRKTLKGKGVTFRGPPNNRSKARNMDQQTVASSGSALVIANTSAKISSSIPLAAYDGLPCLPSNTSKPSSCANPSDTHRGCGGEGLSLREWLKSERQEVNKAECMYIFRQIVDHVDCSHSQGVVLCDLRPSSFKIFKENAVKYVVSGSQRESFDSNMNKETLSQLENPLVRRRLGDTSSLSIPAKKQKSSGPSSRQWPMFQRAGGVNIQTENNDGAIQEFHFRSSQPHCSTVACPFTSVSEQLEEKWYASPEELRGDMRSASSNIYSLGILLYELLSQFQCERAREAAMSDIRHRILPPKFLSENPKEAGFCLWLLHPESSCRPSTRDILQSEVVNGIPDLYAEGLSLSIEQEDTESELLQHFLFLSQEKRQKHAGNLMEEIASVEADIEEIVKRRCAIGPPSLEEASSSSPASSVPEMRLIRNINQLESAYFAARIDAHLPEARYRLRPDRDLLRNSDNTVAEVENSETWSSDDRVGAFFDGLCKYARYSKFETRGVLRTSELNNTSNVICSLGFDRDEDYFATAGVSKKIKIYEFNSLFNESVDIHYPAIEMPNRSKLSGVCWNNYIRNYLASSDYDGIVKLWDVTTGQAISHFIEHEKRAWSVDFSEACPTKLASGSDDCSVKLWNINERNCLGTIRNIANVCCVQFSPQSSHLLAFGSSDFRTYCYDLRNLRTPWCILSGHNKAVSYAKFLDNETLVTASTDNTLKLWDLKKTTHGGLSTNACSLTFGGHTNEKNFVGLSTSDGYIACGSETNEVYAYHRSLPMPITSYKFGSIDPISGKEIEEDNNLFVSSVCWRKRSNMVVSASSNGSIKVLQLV
The assay is described as above.

For assay [3], the target named is T1, SPA1-HA (Arabidopsis thaliana). Nature of the assay: co-IP; SPA-HA precipitated with α-HA beads (μMACS) from extracts of 4-day-old dark-grown seedlings transferred to 50 μmol m^-2 s^-1 blue light (1 h for cry1, 5 min for cry2; time course in S2 Fig); seedlings pre-infiltrated with MG132 and clasto-Lactacystin β-lactone; five times more extract for SPA2-HA than for SPA1-HA; cry1 and cry2 detected by blot.

Assay [4] deals with T2, SPA2-HA (Arabidopsis thaliana). Described as above.
In assay [5] the target is T3, SPA2-HA (Arabidopsis thaliana), Q9T014.
T3 chain: T2 sequence
The assay can be described thus: co-IP; as a1, but 4-day-old dark-grown seedlings kept in darkness (no blue light). As to conditions: remark: other sources report otherwise.

Assay [6] shares this target. The assay can be described thus: co-IP; SPA-HA precipitated with α-HA beads (μMACS) from extracts of 4-day-old dark-grown seedlings transferred to 50 μmol m^-2 s^-1 blue light (1 h for cry1, 5 min for cry2; time course in S2 Fig); seedlings pre-infiltrated with MG132 and clasto-Lactacystin β-lactone; five times more extract for SPA2-HA than for SPA1-HA; cry1 and cry2 detected by blot. As to conditions: remark: other sources report otherwise.

No constants are given. Whether binding was seen depends on the method and setting. Binding seen in cells or lysates may run through a third protein. Some entries that bind do so weakly or less than the wild type. Sequences can lack the tags named with a protein.

“cryptochrome 1 (from UniProt Q43125 1-681)”: the binding entry in assay [1] was “binds weakly”; in assay [2] it was “binds weakly”; in assay [3], “binds”; in assay [4], “binds”.
Turning to “cryptochrome 2 (from UniProt Q96524 1-612)”, the results for the binding entry in assay [1] and in assay [3] were “no binding (condition: in darkness (without blue light))” and “binds”, respectively.

B1: cryptochrome 2, Q96524 1-612 (protein)
chain: MKMDKKTIVWFRRDLRIEDNPALAAAAHEGSVFPVFIWCPEEEGQFYPGRASRWWMKQSLAHLSQSLKALGSDLTLIKTHNTISAILDCIRVTGATKVVFNHLYDPVSLVRDHTVKEKLVERGISVQSYNGDLLYEPWEIYCEKGKPFTSFNSYWKKCLDMSIESVMLPPPWRLMPITAAAEAIWACSIEELGLENEAEKPSNALLTRAWSPGWSNADKLLNEFIEKQLIDYAKNSKKVVGNSTSLLSPYLHFGEISVRHVFQCARMKQIIWARDKNSEGEESADLFLRGIGLREYSRYICFNFPFTHEQSLLSHLRFFPWDADVDKFKAWRQGRTGYPLVDAGMRELWATGWMHNRIRVIVSSFAVKFLLLPWKWGMKYFWDTLLDADLECDILGWQYISGSIPDGHELDRLDNPALQGAKYDPEGEYIRQWLPELARLPTEWIHHPWDAPLTVLKASGVELGTNYAKPIVDIDTARELLAKAISRTREAQIMIGAAPDEIVADSFEALGANTIKEPGLCPSVSSNDQQVPSAVRYNGSKRVKPEEEEERDMKKSRGFDERELFSTAESSSSSSVFFVSQSCSLASEGKNLEGIQDSSDQITTSLGKNGCK
Consider B1, for which the binding entry in assay [5] and in assay [6] was “no binding” throughout.

These data come from publication PMC4569408.
